Test results published in PubChem BioAssay AID624417 (National Center for Advancing Translational Sciences (NCATS), 2012).
The whole screen tested about 410,000 compounds, of which about 6,400 (1.6%) were called active. The inconclusive results got no clear call from the source; some entries with a clear call stand among them for comparison. The call rests on the fitted dose curve; in most records, active means well fitted inhibition curve with a large enough effect; inconclusive means small, poorly fitted or top-dose-only effect; inactive means no such curve, though single readings can be large or run the other way. Potencies of inconclusive entries are left out as doubtful fits.

target: Glucagon-like peptide 1 receptor (Homo sapiens) (UniProt P43220); assay: qHTS of GLP-1 Receptor Inverse Agonists (Inhibition Mode); details: HEK293 GLP-1R CRE-luciferase, luminescence, 24 h, GLP-1R form is constitutively active; activity change, negative = inhibition: at 38.3 µM (top of the series) unless noted; further: nearly all actives have a fitted effect of over 55% in size
Chain of UniProt P43220 (P43220 whole entry, looked up): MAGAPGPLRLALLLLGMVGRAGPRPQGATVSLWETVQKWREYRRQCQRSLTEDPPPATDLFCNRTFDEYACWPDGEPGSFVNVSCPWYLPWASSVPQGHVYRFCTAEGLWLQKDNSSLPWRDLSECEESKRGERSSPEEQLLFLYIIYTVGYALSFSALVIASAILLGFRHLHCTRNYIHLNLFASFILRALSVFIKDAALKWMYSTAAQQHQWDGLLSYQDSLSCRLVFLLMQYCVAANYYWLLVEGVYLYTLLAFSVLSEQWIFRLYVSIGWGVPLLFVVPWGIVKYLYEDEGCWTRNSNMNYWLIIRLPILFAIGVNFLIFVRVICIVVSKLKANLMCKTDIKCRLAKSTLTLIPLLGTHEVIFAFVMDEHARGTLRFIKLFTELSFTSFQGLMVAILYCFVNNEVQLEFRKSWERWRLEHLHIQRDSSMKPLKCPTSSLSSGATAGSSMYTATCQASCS
Outline: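 Using stably transfected HEK293 (constitutively active GLP-1R, cAMP-luciferase reporter), compounds were incubated 24 hr and luciferase measured by luminescence.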
On the % scale 0 is the no-effect control and ±100 the full control effect; potency means the concentration at half of the fitted maximal effect; tags describe the fitted curve by direction and shape.

Row | Compound | Potency | activity change, negative = inhibition
1 | Cc1ccc(NC(=O)CCNS(=O)(=O)c2ccc(Br)cc2)cc1S(=O)(=O)N1CCOCC1 | inconclusive [inhibitor, partial curve, poor fit] | –
2 | COC(=O)c1ccc2nc(C3CCCCC3)c(Cc3ccccc3)n2c1 | inconclusive [inhibitor, partial curve, poor fit] | –
3 | O=C(NCCc1ccccc1F)[C@@H]1CSC2c3ccccc3C(=O)N21 (some centres not stated) | inconclusive [inhibitor, partial curve] | –
4 | CC(Oc1ccc(Br)cc1)C(=O)N1CCc2ccccc21 (configuration not stated) | inconclusive [inhibitor, single point] | –
5 | Cc1ccc(N2CCN(C(=S)c3ccc(-c4ccccc4[N+](=O)[O-])o3)CC2)cc1 | inconclusive [inhibitor, single point] | –
6 | COc1ccccc1C1CCN(c2ccc([N+](=O)[O-])c(OC)c2)CC1 | inconclusive [inhibitor, single point] | –
7 | COc1cc(C(=O)N[C@H](C(=O)NC2CCCc3ccccc32)C(C)C)cc(OC)c1OC (some centres not stated) | inconclusive [inhibitor, single point] | –
8 | CCOc1ccc(S(=O)(=O)N2CCCCC2)cc1NC(=O)CN1CCCC1c1cccs1 (configuration not stated) | inconclusive [inhibitor, partial curve, poor fit] | –
9 | CN1N=C(c2ccc(Cl)cc2)CC(c2ccc(Cl)cc2)C1=O (configuration not stated) | inconclusive [inhibitor, partial curve, poor fit] | –
10 | CCC(O)(C(=O)Nc1ccccc1C(F)(F)F)c1ccccc1OC (configuration not stated) | – | inactive: -23.8%
11 | COc1ccc(-n2c(SC(CN3CCCCC3)CN3CCCC3=O)nc3ccccc3c2=O)cc1 (configuration not stated) | inconclusive [inhibitor, single point] | –
12 | Brc1ccc(-c2nc3ncccn3c2NC2CCCCC2)o1 | inconclusive [inhibitor, single point] | –
13 | CC1CCCCN1CCCn1c(=S)[nH]c2ccccc2c1=O (configuration not stated) | inconclusive [inhibitor, full curve, poor fit] | –
14 | O=[N+]([O-])c1cccc(CSc2ncnc3ccccc23)c1 | inconclusive [inhibitor, single point] | –
15 | COc1cccc(N2CCN(C(=O)c3cc4c(=O)n(Cc5ccco5)ccc4nc3C)CC2)c1 | – | inactive: 6.23%
16 | O=C(NCc1ccccc1Cl)c1ccc(NC(=O)N2CCSc3ncccc32)cc1 | – | inactive: 10.1%
17 | Cc1ccc(NC(=O)c2oc3ccc(S(=O)(=O)N4CCC5(CC4)OCCO5)cc3c2C)c(C)c1 | inconclusive [inhibitor, partial curve] | –
18 | COc1ccc(C(CNC(=O)CSc2ccccc2)N2CCOCC2)cc1 (configuration not stated) | – | inactive: -4.63%
19 | O=C(CSc1nnc(CNC(=O)c2ccco2)o1)Nc1nc2ccccc2s1 | – | inactive: -22.3%
20 | O=C(O)c1ccc2cc(-c3ccccc3)[nH]c2c1 | inconclusive [inhibitor, partial curve, poor fit] | –
21 | COc1ccc(OC(C)C(=O)Nc2ccccc2C(F)(F)F)cc1 (configuration not stated) | inconclusive [inhibitor, partial curve, poor fit] | –

Row | Compound | Potency | activity change, negative = inhibition
22 | CC(C)Cc1nnc(NC(=O)CC(C)c2ccccc2)s1 (configuration not stated) | inconclusive [inhibitor, partial curve, poor fit] | –
23 | CCN1CCN(S(=O)(=O)c2ccc(Cl)c(C(=O)N(C)Cc3ccc(C(C)(C)C)cc3)c2)CC1 | inconclusive [inhibitor, single point] | –
24 | CCn1cc2nc(SCc3ccc(F)cc3)n(Cc3ccc(Cl)cc3)c(=O)c2n1 | – | inactive: 1.2%
25 | CCC(=O)N1N=C(c2c(-c3ccccc3)c3cc(Cl)ccc3[nH]c2=O)CC1c1ccco1 (configuration not stated) | inconclusive [inhibitor, single point] | –
26 | CCOc1ccccc1-n1nnnc1SCC(=O)NC(=O)Nc1ccc2c(c1)OCCO2 | inconclusive [inhibitor, partial curve, poor fit] | –
27 | CCCCN1C(=O)N(c2ccccc2Cl)C(C)(O)CC1(C)C (configuration not stated) | inconclusive [inhibitor, partial curve, poor fit] | –
28 | CC1(C)C(=S)N(Cc2ccccc2)c2ccccc21 | inconclusive [inhibitor, single point] | –
29 | CCOC(=O)c1ccc(CN(Cc2ccc(C)cc2)S(=O)(=O)c2ccc(NC(C)=O)cc2)cc1 | inconclusive [inhibitor, partial curve] | –
30 | CC(C)CC(=O)/C=C/n1c(=S)oc2ccccc21 | – | inactive: 41.6%
31 | Cc1ccc(NC(=O)C2CCCN(S(=O)(=O)c3c(C)n[nH]c3C)C2)cc1C (configuration not stated) | inconclusive [inhibitor, single point] | –
32 | CCOc1cc(S(=O)(=O)NCc2ccc3c(c2)OCO3)ccc1F | inconclusive [inhibitor, single point] | –
33 | CSc1cccc(NC(=O)C2CCN(S(=O)(=O)c3ccc4[nH]c5c(c4c3)CCCCC5)CC2)c1 | inconclusive [inhibitor, partial curve] | –
34 | CCOC(=O)Cc1csc(NC(=O)c2cc(C)c(C)s2)n1 | inconclusive [inhibitor, full curve, poor fit] | –
35 | CC(C)CCNC(=O)Nc1cc(C(=O)NCc2cccc(F)c2)ccc1N1CCCC1 | – | inactive: -24.1%
36 | Cc1cc(OCCCCn2ccnc2)cc(C)c1Cl | inconclusive [inhibitor, partial curve, poor fit] | –
37 | CC1CN(CC(O)COC2CCC(C(C)(C)C)CC2)CC(C)O1 (configuration not stated) | inconclusive [inhibitor, partial curve, poor fit] | –
38 | O=C(Nc1nnc(S(=O)(=O)N2CCCCCC2)s1)c1ccccc1Br | inconclusive [inhibitor, single point] | –
39 | NC(=O)CSc1nnc(Cc2ccc3c(c2)OCO3)n1C1CCCCC1 | – | inactive: 0%
40 | Cc1ccc(-n2ncc3c(N4CCN(C)CC4)ncnc32)cc1C | inconclusive [inhibitor, partial curve, poor fit] | –
41 | O=C1c2ccccc2C(=O)c2c1oc(C(F)(F)F)c2C(=O)c1ccccc1 | – | inactive: -6.43%
42 | CC1CN(S(=O)(=O)c2cc(C(=O)NCCC3=CCCCC3)ccc2Cl)CC(C)O1 (configuration not stated) | inconclusive [inhibitor, partial curve, poor fit] | –

Row | Compound | Potency | activity change, negative = inhibition
43 | C[C@]12c3[nH]c4ccc(Cl)cc4c3CCN1C(=O)[C@@H](CC(=O)NCCCn1ccnc1)C[C@@H]2C(=O)N1CCOCC1 | – | inactive: 2.69%
44 | COc1ccc(C(CCNCc2ccc(N(C)C)cc2)c2ccccc2)cc1 (configuration not stated) | inconclusive [inhibitor, single point] | –
45 | COc1cccc(NC(=O)CN(C)C(=O)CSCc2nc3scc(-c4cccs4)c3c(=O)[nH]2)c1 | inconclusive [inhibitor, single point] | –
46 | Cc1ccc(NC(=O)CN(C)C(=O)c2cccc(-n3cccc3)c2)cc1 | inconclusive [inhibitor, partial curve, poor fit] | –
47 | CC(C)(C)c1ccc(C(=O)N2CCC2(C)C(=O)NCc2cccc3ccccc23)cc1 (configuration not stated) | inconclusive [inhibitor, partial curve, poor fit] | –
48 | COc1cccc(CNC(=O)CCc2c(C)c3cc4c(C)coc4c(C)c3oc2=O)c1 | – | inactive: 7.91%
49 | O=C(Nc1ccc(F)c(F)c1)c1ccccc1-c1ccccc1 | inconclusive [inhibitor, single point] | –
50 | CN(C)c1nc(/C=C(\C#N)C(N)=O)c(Cl)n1-c1ccc(F)cc1 | inconclusive [inhibitor, single point] | –
51 | COc1ccc(Cn2nnnc2C(c2cccs2)N2CCCCCC2)cc1 (configuration not stated) | inconclusive [inhibitor, partial curve, poor fit] | –
52 | CCn1c(C)c(C)c2cc(C(=O)NCc3cccc(C)c3)ccc21 | inconclusive [inhibitor, single point] | –
53 | Cc1cc(N2CCN(C)CC2)nc2ccc(NC(=O)c3ccc(Br)o3)cc12 | inconclusive [inhibitor, partial curve, poor fit] | –
54 | O=C(NNc1ccc(O)cc1)c1ccc(Br)cc1 | inconclusive [inhibitor, full curve, poor fit] | –
55 | COc1cnc(N(C)C)nc1Sc1cccc(Cl)c1 | inconclusive [inhibitor, single point] | –
56 | Cc1cccc(C(=O)Nc2ccc(C(=O)OCc3cc(=O)n4nc(CC(C)C)sc4n3)cc2)c1 | – | inactive: 10.6%
57 | O=C(c1ccccc1)N(Cc1ccco1)Cc1cccs1 | inconclusive [inhibitor, single point] | –
58 | O=C(Nc1ccc(Cl)cc1Cl)C1CCC(=O)N1Cc1ccccc1Cl (configuration not stated) | inconclusive [inhibitor, single point] | –
59 | COc1ccc(NC(=O)/C=C\C(=O)N(c2ccc(C(C)C)cc2)C(C(=O)NCc2ccco2)c2ccc(F)cc2)cc1 (configuration not stated) | inconclusive [inhibitor, full curve, poor fit] | –
60 | Cc1sc2ncnc(N(C)C3CCCCC3)c2c1C | inconclusive [inhibitor, partial curve, poor fit] | –
61 | O=C(CN1C(=O)NC2(CCCC2)C1=O)Nc1nc2ccccc2s1 | inconclusive [inhibitor, full curve, poor fit] | –
62 | O=C(NCc1ccco1)C1CCN(c2nc3ccccc3n2Cc2ccccc2F)CC1 | inconclusive [inhibitor, partial curve, poor fit] | –
